# Whole data set: some 33,000 sequences, median “E-score (-0.5 to 0.5)” near -0.032, cut for the highest 2% near 0.36. This is one part of the list.
# Molecular target: T1, Sko1 (UniProt Q02100)
# T1 sequence: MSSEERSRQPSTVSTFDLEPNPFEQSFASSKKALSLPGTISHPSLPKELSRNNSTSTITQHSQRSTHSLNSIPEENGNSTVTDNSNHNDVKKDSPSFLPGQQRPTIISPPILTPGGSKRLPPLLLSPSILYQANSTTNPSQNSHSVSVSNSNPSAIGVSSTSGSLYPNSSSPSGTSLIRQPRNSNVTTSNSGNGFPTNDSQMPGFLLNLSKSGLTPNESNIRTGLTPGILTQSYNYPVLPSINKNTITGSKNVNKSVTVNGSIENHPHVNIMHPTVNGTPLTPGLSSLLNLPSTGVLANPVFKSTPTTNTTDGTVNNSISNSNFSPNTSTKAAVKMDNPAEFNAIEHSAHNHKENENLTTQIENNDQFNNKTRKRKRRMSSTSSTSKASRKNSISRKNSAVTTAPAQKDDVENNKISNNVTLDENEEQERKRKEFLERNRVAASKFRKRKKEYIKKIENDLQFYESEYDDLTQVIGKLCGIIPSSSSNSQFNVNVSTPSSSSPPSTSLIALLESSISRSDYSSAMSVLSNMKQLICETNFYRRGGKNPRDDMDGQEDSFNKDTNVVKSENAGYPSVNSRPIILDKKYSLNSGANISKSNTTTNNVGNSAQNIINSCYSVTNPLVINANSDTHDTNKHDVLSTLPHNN
# Experiment: PBM E-score (8-mer binding enrichment) (E-score (-0.5 to 0.5)); higher = stronger / more preferred TF binding; most listed sequences are background and not binding sites
# Conditions: protein concentration: 200 nM; construct: GST-full length
# In short: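 Using PURExpress in vitro transcription/translation, GST-tagged yeast transcription factors were made in full-length or DNA-binding-domain form. These were applied at about 100-200 nM to double-stranded universal all-10-mer Agilent arrays, and bound protein was detected with fluorescent anti-GST. Scans were normalised with masliner before the Universal PBM Analysis Suite assigned E-scores to ungapped eight-base words pooled with their reverse complements.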
row,Sequence,PBM E-score
1,CGTTCTGA,0.174
2,CCGGGTTA,-0.209
3,AGAACTCG,0.0952
4,CAGGTTTC,-0.0189
5,CTCATTCC,-0.0322
6,ACATACCA,-0.0223
7,GGTCGGGA,-0.22
8,CCGGATCG,-0.225
9,ACGTAACT,0.459
10,AACGTTAT,0.368
11,ATTGCGGG,-0.0411
12,AGTATTTG,0.00607
13,GATGACGC,0.473
14,AGAGCAAC,-0.094
15,GAAAGACA,0.143
16,CGCATGGC,-0.0485
17,CGGCAATC,-0.174
18,TAGTAACA,0.183
19,AAATTGTA,0.0214
20,GCAGCTTA,-0.0732
21,ACGAGTTA,0.183
22,CCCCAAGA,-0.0628
23,CAGCCGTC,-0.15
24,AATGCCTC,-0.0545
25,ATTGTATG,-0.0348

row,Sequence,PBM E-score
1,CGCTATTC,0.0711
2,ATACCGCC,-0.228
3,ATCTGGCC,-0.0936
4,GTCTTGTA,-0.0618
5,TAATTGCA,0.158
6,GTCTAGAC,-0.196
7,CCTCCCAC,-0.168
8,TAATGGTA,0.0858
9,GTAAGTAC,0.189
10,CTTATGCA,0.114
11,ACCAAATC,0.00737
12,AGATTACC,0.108
13,CTTCGGCA,-0.161
14,AGGTTCTC,-0.23
15,GCCTGCTA,-0.246
16,AGTGAGGC,0.0161
17,CCACCCAC,-0.106
18,AGCACGAA,0.169
19,TCAAACGA,0.102
20,GACATATA,0.198
21,TACTGCGA,0.0205
22,CACGGACA,-0.119
23,ATTCATTC,0.216
24,CATTTTAC,0.281
25,AGGCCCCT,-0.378

row,Sequence,PBM E-score
1,AGCCATAA,0.143
2,AGACATCC,-0.0595
3,GAGACTTA,-0.131
4,CTCCATGA,0.0278
5,AAGCGTAA,0.241
6,ACGTGCAG,0.32
7,GTTATGAA,0.139
8,CAATTGAA,-0.109
9,CCGTTGCA,-0.177
10,ACCTACCG,-0.0842
11,CGCTGAAG,-0.189
12,GAGTCATC,-0.0308
13,AACTCCTT,-0.0253
14,CTGGATGC,-0.36
15,GCCACCCA,-0.329
16,ATCAATTG,0.102
17,ACCTCGCG,0.0189
18,CTCTTTGA,-0.065
19,ATGAAGGA,0.0878
20,CCTGATGA,0.162
21,AAGAATCG,0.179
22,GACAACGC,0.0984
23,AGCGTCAG,0.154
24,ACTTCGTA,0.212
25,ACTTACCC,-0.0438

row,Sequence,PBM E-score
1,AAGTGAGC,0.0444
2,TAAGCCGA,-0.02
3,CCCACACA,-0.218
4,ACGACCTG,-0.123
5,GGGGATGA,-0.17
6,GTAAGCTA,0.24
7,ATAAACCC,0.118
8,CAAACAAC,0.205
9,ACTTCTGA,0.0203
10,ACTACCTC,-0.0329
11,CACAAAAA,0.136
12,ATATGAAG,0.0536
13,ATGTGCAA,0.0773
14,CACTAGCC,0.0142
15,CATACCAG,-0.0928
16,GCTGGTTA,0.064
17,AAAGTTAG,0.18
18,ATGTCGCC,-0.104
19,GCGCCCCA,-0.0711
20,AACAGCTC,-0.0959
21,AGGAAATG,0.0666
22,TAAGTAAA,0.0578
23,ACGATTAT,0.184
24,AGCAGGTG,-0.0269
25,AACCGCCT,-0.247

row,Sequence,PBM E-score
1,CAGTTGCG,0.0907
2,AAGCTAAA,0.11
3,ACAGTTTG,-0.171
4,ATTTTGAG,0.112
5,CGGTCACC,-0.13
6,AGCGGGCA,-0.296
7,AGCCTATC,-0.0948
8,CAAGCCAG,-0.0729
9,CAAATGGA,-0.0346
10,ACTGTACG,0.157
11,AATCCACC,-0.136
12,ATAACGTG,0.377
13,ACACTGGT,-0.0931
14,CCGTACAA,0.0588
15,CGAGCCAG,-0.113
16,GCTCCATA,-0.0829
17,CGTGCTCC,-0.164
18,ACCCCGGG,-0.309
19,ATTATCGG,-0.0667
20,GGGAGTCA,-0.165
21,GACAGAAC,0.0194
22,ACCCCATG,-0.0741
23,CTGCAAGA,-0.119
24,ATAACCAT,0.057
25,TTCCGGAA,-0.0873

row,Sequence,PBM E-score
1,CAAAGAAA,0.179
2,AAATCCGT,0.119
3,GACTCTCC,-0.2
4,GACTGACA,0.0348
5,AGAGTCCA,-0.123
6,ATTCGGTG,0.0911
7,AAGCTACT,-0.00041
8,ACCTTGCG,0.0137
9,CTACCGGC,-0.309
10,CAATGAGC,-0.0908
11,AAGTCATT,0.0592
12,AGAGGTAG,-0.178
13,TATAAAAA,0.224
14,CGAGCCCA,-0.0666
15,AGTCGCCC,-0.143
16,ACCGCTAC,-0.179
17,CGGCGTCC,-0.173
18,AGTAGTTA,-0.129
19,GTAAAACA,0.217
20,CTCGAGAA,-0.113
21,CGCTATGA,0.144
22,ATGCTAGG,-0.135
23,AGTCGGAT,-0.0432
24,CGGCATCA,0.0468
25,GCTGGTAA,-0.0739

row,Sequence,PBM E-score
1,ATAAGGAT,0.188
2,CGTAATGA,0.461
3,CTTGAAGA,-0.132
4,ACAGCTTA,-0.00668
5,ACTATACA,0.0602
6,TAATATGA,0.264
7,CGAGGGTA,-0.185
8,TGATCCAA,0.0166
9,AAGTGGCC,-0.217
10,ATTGCGTA,0.472
11,CATCCGCG,0.0392
12,ATAGCTAT,0.0838
13,AAGTACTA,0.182
14,ACGCGTCA,0.436
15,GTCTGACA,0.0436
16,GAATCCGC,-0.309
17,TAACATCA,0.367
18,ACCCAGGG,-0.21
19,CCGACCGC,-0.311
20,TAGGACGA,-0.084
21,AGACCGTG,-0.116
22,ACGTGAGC,0.264
23,GCATCGAA,-0.147
24,AATCTACT,0.0253
25,AGCTCGCC,-0.257

row,Sequence,PBM E-score
1,GTCTTGCA,-0.0164
2,GCATCACA,0.16
3,GCCTACAC,0.0309
4,CTGCGGGA,-0.29
5,ATTCGTGG,0.185
6,TGCGTGAA,0.227
7,CGAAACAG,0.0515
8,AACACCGA,-0.0775
9,AAGGGGTA,-0.265
10,CAGCTGTC,-0.101
11,AGGTGCAT,-0.0658
12,GCTACCAC,-0.101
13,AACTCTCC,-0.175
14,AGACATGC,-0.0143
15,AGCCACAC,0.0697
16,AAACTCAT,0.132
17,CGCAGATC,-0.114
18,CGACTACG,0.228
19,CTGATACA,-0.058
20,CGAGTCAA,-0.0833
21,CGGCGCCG,-0.299
22,TAAACTCA,0.106
23,CTAGACTC,-0.256
24,ATGCATGA,0.289
25,AAGCCTAA,-0.0491

row,Sequence,PBM E-score
1,CATGAGCA,-0.242
2,AAGTCTCC,-0.0641
3,CAATTGTG,0.104
4,ATACCGTC,0.183
5,CTTCATTA,0.159
6,GGACCAAC,-0.0204
7,CGACATGA,0.0616
8,TAGCTTCA,0.0123
9,AGCTGACG,0.347
10,ATATTCTA,0.163
11,CTACTTCC,0.0434
12,TAGTGATA,0.119
13,CGAGGTAC,0.0936
14,AAATGGGC,-0.205
15,CATATGTA,0.225
16,CTGTCCTC,-0.159
17,GACGTAGC,0.436
18,ACGCTACG,0.326
19,ATAGAGCA,-0.0151
